The supplement of paper PMC10126150
Values marked as one replicate rest on one cluster of the flow cell; about a third of the high ones do not repeat.

What follows are sequences tested on ATP (assay: switch fluorescence ratio, 500 uM ATP over buffer (Cy3 cluster intensity, sum of 5 cycles each) (fold (ratio)); higher = stronger signal-on switching upon ATP binding; sequences stand for … in TCGTCGGCAGCGTCAGATGTGTATAAGAGACAGTTTTTTTTTTTTTTTTTTTTTTTTT…TC). Conditions: aptamer strand: ATP DNA aptamer (quencher-CACCTGGGGGAGTATTGCGGAGGAAGG + anchor), 100 nM annealed; ATP concentration: 500 uM; one replicate.
Method in brief: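 For every switch-domain sequence, the fluorescence ratio is the mean of per-cluster values, each being summed target-cycle Cy3 intensity over summed buffer-cycle Cy3 intensity. Clusters outside 100-1000 RFU were excluded. On a modified Illumina MiSeq flow-cell, the Cy3-labelled switching-strand clusters were annealed to 100 nM quencher-labelled ATP aptamer, imaged in selection buffer and then after 15 min with 500 uM ATP at 22 °C. Five such cycles were run, with NaOH stripping and re-annealing between them.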
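Note: ATP exposure 15 min at 22 °C before imaging.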

| Sequence | switch fluorescence ratio |
| --- | --- |
| ATAACTCAAT | 0.99 |
| TTACTACAAA | 1.04 |
| TAAGGCTGTC | 0.929 |
| ATAACAGGTC | 1.1 |
| CCAGCCTGCA | 1.09 |
| GTCTCAATG | 0.973 |
| AAAGACGTAA | 1.15 |
| TTGCATTGGT | 1 |
| CATAGGTAGC | 1.02 |
| CTGGGCGTAT | 1.06 |
| AGGCAACCTA | 1 |
| CTACGTGCAA | 2.27 |
| TACGCCTTGT | 0.969 |
| TAGACAGAAC | 1.06 |
| GCGAGGCAAG | 1.39 |
| ACAGATTAGG | 1.01 |
| GATGCGAACG | 0.989 |
| CATTCTTACT | 0.991 |
| ACTTCACCTT | 1.33 |
| TGTAGTCAAC | 2.29 |
| CGGGAAAGGT | 0.968 |
| CCTGGTCCGA | 1.08 |

| Sequence | switch fluorescence ratio |
| --- | --- |
| ACCGAATGCA | 1.25 |
| TTAGCCTTCT | 1.08 |
| CCAGATCAGG | 1.01 |
| TCGCTTCCGC | 1.38 |
| GGATTCCGGT | 0.97 |
| CATCTATATG | 1.01 |
| AAGCGTACAT | 1.06 |
| TTCGGTGCAG | 0.945 |
| ATGATATTGG | 0.975 |
| AACTTAGCAT | 1.04 |
| TTTGGTGAGT | 0.995 |
| TTGCTGATCG | 0.996 |
| GGAGATATAA | 0.998 |
| GATTACTTGA | 1.05 |
| GATGCGCGGA | 0.947 |
| TGGCGAATGG | 0.971 |
| ACCTCGGGCA | 1.08 |
| GGTTGAGGGT | 0.947 |
| CTGATGGGAA | 1.09 |
| TTCGTAAAGC | 1.09 |
| GATAGGACTG | 0.903 |
| AGGTCCCCTT | 1.02 |

| Sequence | switch fluorescence ratio |
| --- | --- |
| ACTGTCGGAC | 1.02 |
| AAATAATACT | 1.09 |
| GTCGCAATTA | 1.69 |
| TTCCTTAGGT | 1 |
| TGTCTGTAAA | 1.04 |
| AGTTAGGCGT | 1.01 |
| AAATTTAGAT | 0.965 |
| AGGTAGTCAC | 1.03 |
| ATACGGACGA | 1.44 |
| TGCTAGGGGA | 0.967 |
| TTGGTCCTCC | 1.01 |
| AGCAGGGTCA | 0.979 |
| CGGGGAGCCC | 0.981 |
| TGTCTGCTGG | 0.969 |
| TCGACTAAGG | 0.999 |
| CCTCAACCAT | 1.28 |
| GGACCATGAA | 1.01 |
| ACTTTTACTA | 1.12 |
| GTATGGAGT | 0.95 |
| CCTTGAGTAT | 1.03 |
| TATTAGCAAA | 1.03 |
| TTCTAATGGG | 1 |

| Sequence | switch fluorescence ratio |
| --- | --- |
| ATTACGAC | 1.16 |
| GGGAAGTAGA | 0.995 |
| GTCAGTAATG | 0.973 |
| TGGTCGGGTA | 1.04 |
| GTTGCTTAGG | 1.03 |
| TGCGTTTAGA | 1.02 |
| TTGAACTCTA | 1.04 |
| GAATCTATGC | 1.04 |
| ACTGTGAAT | 1.01 |
| CAATCTTGTG | 1.01 |
| TTCCCGCGCG | 1.01 |
| ACATGACCAG | 1.08 |
| TTTCTACAGG | 1.05 |
| TCGTTGCACT | 0.996 |
| ACACGGGTGG | 1.07 |
| TCTGTGCAGA | 0.999 |
| TAGGCTCAGG | 1.01 |
| AATGAATCCT | 1.07 |
| ATCACTCAGT | 1.03 |
